Assay results published in PubChem BioAssay AID1745845 (National Center for Advancing Translational Sciences (NCATS), 2022).
About 2,600 (0.72%) of roughly 360,000 compounds were called active. Inconclusive means that the source gave no clear call. Such entries were picked first, then a sample of the others. The call rests on the fitted dose curve; in most records, active means well fitted inhibition curve with a large enough effect; inconclusive means small, poorly fitted or top-dose-only effect; inactive means no such curve, though single readings can be large or run the other way. Potencies beside an inconclusive call are fits to weak or partial responses and may not hold up.

test: Primary qHTS for Inhibitors of ATXN expression; settings: HEK-293 ATXN2-luciferase reporter, luminescence, 24 h; activity change, negative = inhibition: at 57 µM (top of the series); further: nearly all actives have a fitted effect of over 55% in size
How it was run: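 qHTS (up to 57 uM final) was run with 24 h compound exposure of reporter cells at 37 °C. Each well was multiplexed: SteadyGlo luminescence measured ATXN2-luciferase expression after a fluorogenic Gly-Phe-AFC viability readout (25 uM final).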
On the % scale 0 is the no-effect control and ±100 the full control effect; potency means the concentration at half of the fitted maximal effect; tags describe the fitted curve by direction and shape.

Question: With `Cc1cc(C)nc(NC(=S)NC(=O)c2ccccc2F)n1` as the molecule, how does the Potency read?
Answer: inactive

Question: With `CCN(CC)S(=O)(=O)c1cc(-c2nnc(Nc3ccc(OC)c(C(N)=O)c3)c3ccccc23)ccc1C` as the molecule, how does the Potency read?
Answer: inconclusive: 35.5 µM [inhibitor, single point]

Question: Which Potency does the source give for `Cc1c(N=Nc2c(-c3ccc([N+](=O)[O-])cc3)[nH]n(C(N)=S)c2=O)cccc1[N+](=O)[O-]` here?
Answer: inconclusive: 6.31 µM [inhibitor, partial curve]

Question: For `Cc1sc2cc3c(c(C(=O)c4ccccc4)[n+]2c1C)-c1cccc2cccc-3c12`, which Potency is on record?
Answer: active: 10.6 µM

Question: Which Potency does the source give for `Cc1ccc(N(C(=O)COc2ccccc2C)S(=O)(=O)c2ccc(Cl)cc2)cc1` here?
Answer: inconclusive: 25.1 µM [inhibitor, partial curve]

Question: With `S=c1[nH]ccn1-c1ccccc1Cl` as the molecule, how does the Potency read?
Answer: inactive

Question: With `Cc1cccn2c(=O)c(C=O)c(Cl)nc12` as the molecule, how does the Potency read?
Answer: inconclusive: 29.9 µM [inhibitor, single point]

Question: For `CCCc1cc(CNC(=O)C2CCC(=O)N(CCc3cccc(F)c3)C2)on1` (centres undefined), which Potency is on record?
Answer: inconclusive: 31.6 µM [inhibitor, single point]

Question: For `CC=Cc1cc2c(c(=O)o1)C(=O)C(O)C(C)O2` (centres undefined), which Potency is on record?
Answer: inconclusive: 37.7 µM [inhibitor, single point]

Question: Which activity change, negative = inhibition does the source give for `O=C1ON=C(c2ccccc2)/C1=C/c1ccco1` here?
Answer: inactive: -6.73% [at 11.3 µM]

Question: For `COc1ccc(-c2csc3ncnc(Sc4nnnn4C)c23)cc1`, which Potency is on record?
Answer: active: 20 µM

Question: With `O=C(CSc1ccccc1)N/N=C/c1ccccc1O` as the molecule, how does the Potency read?
Answer: inconclusive: 25.1 µM [inhibitor, single point]

Question: Which Potency does the source give for `COc1ccc(NC(=O)/C(C#N)=C\C=C\c2ccco2)cc1` here?
Answer: inconclusive: 25.1 µM [inhibitor, partial curve, poor fit]

Question: For `O=C1c2ccccc2C(=O)c2c1ccc1c(=O)n(C3CCCCC3)[nH]c21`, which Potency is on record?
Answer: inconclusive: 20 µM [inhibitor, partial curve, poor fit]

Question: Which Potency does the source give for `CCOc1cc(N2CCOCC2)c(OCC)cc1NC(=O)c1cc(-c2ccco2)nc2ccccc12` here?
Answer: inconclusive: 25.1 µM [inhibitor, single point]

Question: For `CCn1c2ccccc2c2cc(/C=C(/C#N)C(N)=S)ccc21`, which Potency is on record?
Answer: active: 3.55 µM

Question: With `CCOc1ccc(Nc2nc(NCC3CCCO3)c3ccccc3n2)cc1` (centres undefined) as the molecule, how does the Potency read?
Answer: inconclusive: 31.6 µM [inhibitor, single point]

Question: For `COc1ccc(/C=C/C(=O)c2ccc(C)c([N+](=O)[O-])c2)cc1O`, which Potency is on record?
Answer: inactive

Question: With `COc1ccccc1N(CC(=O)Nc1ccc(Cc2ccncc2)cc1)S(=O)(=O)c1ccccc1` as the molecule, how does the Potency read?
Answer: inconclusive: 11.2 µM [inhibitor, partial curve, poor fit]

Question: For `CC(C)(C)NC(=O)CN(C(=O)CS(=O)CC(=O)Nc1ccc(F)cc1)c1ccc(F)c(Cl)c1` (centres undefined), which Potency is on record?
Answer: inactive

Question: For `CC(C)c1ccc(S(=O)(=O)c2cnc(SCC(=O)Nc3cccc(C(F)(F)F)c3)nc2N)cc1`, which Potency is on record?
Answer: inconclusive: 39.8 µM [inhibitor, single point]

Question: For `CNCc1ccccc1Sc1ccc(OC)cc1`, which Potency is on record?
Answer: inactive

Question: With `CC(C)n1nc(C(=O)Nc2nc3ccc(S(C)(=O)=O)cc3s2)c2ccccc2c1=O` as the molecule, how does the Potency read?
Answer: inconclusive: 2.24 µM [inhibitor, partial curve, poor fit]

Question: For `CC[C@]12c3[nH]c4ccccc4c3CCN1C(=O)C(CC(=O)NCC13CC4CC(CC(C4)C1)C3)C[C@@H]2C(=O)N1CCN(C(=O)c2ccco2)CC1` (some centres undefined), which Potency is on record?
Answer: inconclusive: 39.8 µM [inhibitor, single point]

Question: For `CC(C)(C)OC(=O)[C@H](Cc1ccccc1)NC(=O)c1nc[nH]c1C(=O)N[C@@H](Cc1ccccc1)C(=O)OC(C)(C)C`, which Potency is on record?
Answer: inconclusive: 35.5 µM [inhibitor, partial curve, poor fit]

Question: For `Cc1cc(C)n2nc(SCC(=O)c3ccc[nH]3)nc2n1`, which Potency is on record?
Answer: inconclusive: 6.31 µM [inhibitor, single point]

Question: For `Clc1ccc(C(c2nnnn2C2CCCCC2)N(Cc2cccnc2)Cc2ccco2)cc1` (centres undefined), which Potency is on record?
Answer: inconclusive: 25.1 µM [inhibitor, partial curve]

Question: For `Nc1nonc1-n1nnc(C(=O)N/N=C/c2cc(Br)ccc2O)c1CSC1=NCCS1`, which Potency is on record?
Answer: inconclusive: 3.98 µM [inhibitor, full curve]

Question: Which Potency does the source give for `Nc1ncnc2c1ncn2C1C=C(CO)C(O)C1O` (centres undefined) here?
Answer: inconclusive: 16.8 µM [inhibitor, partial curve, poor fit]

Question: Which Potency does the source give for `O=C(c1oc2ccccc2c1CSCc1ccccc1)N1CCN(c2ncccn2)CC1` here?
Answer: inconclusive: 8.91 µM [inhibitor, partial curve, poor fit]

Question: With `CCCc1c(C(=O)N/N=C(\C)CCc2ccccc2)nnn1-c1nonc1N` as the molecule, how does the Potency read?
Answer: inconclusive: 39.8 µM [inhibitor, partial curve, poor fit]

Question: For `Cc1[nH]n(-c2ccccc2)c(=O)c1/C=N/N1C(=O)c2cccc3cccc(c23)C1=O`, which Potency is on record?
Answer: inconclusive: 18.9 µM [inhibitor, partial curve]

Question: With `Cc1cccc(Cn2c(SCc3ccc(C(=O)N4CCC(C)CC4)cc3)nc3ccncc32)c1` as the molecule, how does the Potency read?
Answer: inconclusive: 28.2 µM [inhibitor, single point]

Question: With `CC1=CC(C)[C@H](/C=N/n2c(=O)[nH]c3c([nH]c4ccc(C)cc43)c2=O)C(C)C1` (some centres undefined) as the molecule, how does the Potency read?
Answer: inconclusive: 23.8 µM [inhibitor, partial curve, poor fit]

Question: Which activity change, negative = inhibition does the source give for `COc1cc(/C=C2\CC/C(=C\c3ccc(OCCO)c(OC)c3)C2=O)ccc1OCCO` here?
Answer: inactive: 1.61% [at 11.3 µM]

Question: For `COC(=O)[C@]12CCCCC=C1N(Cc1ccc(Cl)cc1Cl)C(=O)[C@H](CC(=O)NCCC(C)C)C2`, which Potency is on record?
Answer: inconclusive: 39.8 µM [inhibitor, single point]

Question: For `CCCn1c(CN2CCN(C(=O)OCC)CC2)nc2c1c(=O)n(C)c(=O)n2C`, which Potency is on record?
Answer: inactive

Question: With `Cc1nc2ccccc2c(=O)n1/N=C/c1cc(Br)ccc1O` as the molecule, how does the Potency read?
Answer: inconclusive: 31.6 µM [inhibitor, single point]

Question: With `Cc1ccc(S(=O)(=O)CCC(=O)N2CCN(c3ccc(Cl)cc3)CC2)cc1` as the molecule, how does the Potency read?
Answer: inconclusive: 20 µM [inhibitor, partial curve, poor fit]
